# According to the supplement of paper PMC8728848:
# This is one part of the list.
# B1: CV-2L (Chromobacterium violaceum), Q7NX84 (protein)
# chain: MAQQGVFTLPARINFGVTVLVNSAATQHVEIFVDNEPRAAFSGVGTGDNNLGTKVINSGSGNVRVQITANGRQSDLVSSQLVLANKLNLAVVGSEDGTDMDYNDSIVILNWPLG
# Key:
# Assay in all cases: glycan array binding signal (z-score within array); higher = stronger binding
# Details in all cases: glycan notation: IUPAC condensed, linker removed
# Gal(a1-3)Gal = molecular target: Gal(a1-3)Gal
# How it was run: (§1)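 The Consortium for Functional Glycomics database supplied 3228 glycan arrays, of which those lacking an available protein sequence were dropped. The binding signal, a within-array Z-score, was averaged across arrays of the same protein sequence and across linkers. Negative scores can be read as non-binding.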
# Gal(a1-3)Gal(b1-3)GlcNAc = molecular target: Gal(a1-3)Gal(b1-3)GlcNAc
# How it was run: as §1
# [1] = molecular target: Gal(a1-3)Gal(b1-3)GlcNAc(b1-2)Man(a1-3)[Gal(a1-3)Gal(b1-3)GlcNAc(b1-2)Man(a1-6)]Man(b1-4)GlcNAc(b1-4)GlcNAc
# How it was run: as §1
# [2] = molecular target: Gal(a1-3)Gal(b1-3)GlcNAc(b1-3)GalNAc
# How it was run: as §1
# [3] = molecular target: Gal(a1-3)Gal(b1-3)[Fuc(a1-4)]GlcNAc(b1-2)Man(a1-3)[Gal(a1-3)Gal(b1-3)[Fuc(a1-4)]GlcNAc(b1-2)Man(a1-6)]Man(b1-4)GlcNAc(b1-4)GlcNAc
# How it was run: as §1
# Gal(a1-3)Gal(b1-4)Glc = molecular target: Gal(a1-3)Gal(b1-4)Glc
# How it was run: as §1
# Gal(a1-3)Gal(b1-4)GlcNAc = molecular target: Gal(a1-3)Gal(b1-4)GlcNAc
# How it was run: as §1
# [4] = molecular target: Gal(a1-3)Gal(b1-4)GlcNAc(b1-3)GalNAc
# How it was run: as §1
# [5] = molecular target: Gal(a1-3)Gal(b1-4)[Fuc(a1-3)]GlcNAc
# How it was run: as §1
# [6] = molecular target: Gal(a1-3)Gal(b1-4)[Fuc(a1-3)]GlcNAc(b1-2)Man(a1-3)[Gal(a1-3)Gal(b1-4)[Fuc(a1-3)]GlcNAc(b1-2)Man(a1-6)]Man(b1-4)GlcNAc(b1-4)GlcNAc
# How it was run: as §1
# Gal(a1-3)GalNAc = molecular target: Gal(a1-3)GalNAc
# How it was run: as §1
# [7] = molecular target: Gal(a1-3)[Gal(a1-4)]Gal(b1-4)GlcNAc
# How it was run: as §1
# [8] = molecular target: Gal(a1-4)Gal(b1-3)GlcNAc(b1-2)Man(a1-3)[Gal(a1-4)Gal(b1-3)GlcNAc(b1-2)Man(a1-6)]Man(b1-4)GlcNAc(b1-4)GlcNAc
# How it was run: as §1
# Gal(a1-4)Gal(b1-4)Glc = molecular target: Gal(a1-4)Gal(b1-4)Glc
# How it was run: as §1
# Gal(a1-4)Gal(b1-4)GlcNAc = molecular target: Gal(a1-4)Gal(b1-4)GlcNAc
# How it was run: as §1
# [9] = molecular target: Gal(a1-4)Gal(b1-4)GlcNAc(b1-2)Man(a1-3)[Gal(a1-4)Gal(b1-4)GlcNAc(b1-2)Man(a1-6)]Man(b1-4)GlcNAc(b1-4)GlcNAc
# How it was run: as §1
# [10] = molecular target: Gal(a1-4)Gal(b1-4)GlcNAc(b1-3)Gal(b1-4)Glc
# How it was run: as §1
# Gal(a1-4)GlcNAc = molecular target: Gal(a1-4)GlcNAc
# How it was run: as §1
# Gal(a1-6)Glc = molecular target: Gal(a1-6)Glc
# How it was run: as §1
# Gal(b1-2)Gal = molecular target: Gal(b1-2)Gal
# How it was run: as §1
# Gal(b1-3)Gal = molecular target: Gal(b1-3)Gal
# How it was run: as §1
# Gal(b1-3)Gal(b1-4)GlcNAc = molecular target: Gal(b1-3)Gal(b1-4)GlcNAc
# How it was run: as §1
# [11] = molecular target: Gal(b1-3)Gal(b1-4)GlcNAc(b1-2)Man(a1-3)[Gal(b1-3)Gal(b1-4)GlcNAc(b1-2)Man(a1-6)]Man(b1-4)GlcNAc(b1-4)GlcNAc
# How it was run: as §1
# Gal(b1-3)GalNAc = molecular target: Gal(b1-3)GalNAc
# How it was run: as §1
# [12] = molecular target: Gal(b1-3)GalNAc(a1-3)[Fuc(a1-2)]Gal(b1-4)Glc
# How it was run: as §1
# [13] = molecular target: Gal(b1-3)GalNAc(a1-3)[Fuc(a1-2)]Gal(b1-4)GlcNAc
# How it was run: as §1
# [14] = molecular target: Gal(b1-3)GalNAc(b1-3)Gal(a1-4)Gal(b1-4)Glc
# How it was run: as §1
# [15] = molecular target: Gal(b1-3)GalNAc(b1-4)Gal(b1-4)Glc
# How it was run: as §1
# [16] = molecular target: Gal(b1-3)GalNAc(b1-4)[Neu5Ac(a2-3)]Gal(b1-4)Glc
# How it was run: as §1
# Gal(b1-3)GlcNAc = molecular target: Gal(b1-3)GlcNAc
# How it was run: as §1
# [17] = molecular target: Gal(b1-3)GlcNAc(a1-6)Gal(b1-4)GlcNAc
# How it was run: as §1
# [18] = molecular target: Gal(b1-3)GlcNAc(b1-2)Man(a1-3)[Gal(b1-3)GlcNAc(b1-2)Man(a1-6)]Man(b1-4)GlcNAc(b1-4)GlcNAc
# How it was run: as §1
# [19] = molecular target: Gal(b1-3)GlcNAc(b1-2)Man(a1-3)[Gal(b1-3)GlcNAc(b1-2)Man(a1-6)]Man(b1-4)GlcNAc(b1-4)[Fuc(a1-6)]GlcNAc
# How it was run: as §1
# [20] = molecular target: Gal(b1-3)GlcNAc(b1-2)[Gal(b1-3)GlcNAc(b1-6)]Man(a1-6)[Gal(b1-3)GlcNAc(b1-2)Man(a1-3)]Man(b1-4)GlcNAc(b1-4)GlcNAc
# How it was run: as §1
# [21] = molecular target: Gal(b1-3)GlcNAc(b1-3)Gal(b1-3)GlcNAc
# How it was run: as §1
# [22] = molecular target: Gal(b1-3)GlcNAc(b1-3)Gal(b1-4)Glc
# How it was run: as §1
# [23] = molecular target: Gal(b1-3)GlcNAc(b1-3)Gal(b1-4)GlcNAc
# How it was run: as §1
# [24] = molecular target: Gal(b1-3)GlcNAc(b1-3)Gal(b1-4)GlcNAc(b1-6)[Gal(b1-3)GlcNAc(b1-3)]Gal(b1-4)Glc
# How it was run: as §1
# [25] = molecular target: Gal(b1-3)GlcNAc(b1-3)Gal(b1-4)[Fuc(a1-3)]GlcNAc(b1-6)[Gal(b1-3)GlcNAc(b1-3)]Gal(b1-4)Glc
# How it was run: as §1
# [26] = molecular target: Gal(b1-3)GlcNAc(b1-3)GalNAc
# How it was run: as §1
# [27] = molecular target: Gal(b1-3)GlcNAc(b1-6)Gal(b1-4)GlcNAc
# How it was run: as §1
# [28] = molecular target: Gal(b1-3)[Fuc(a1-4)]GlcNAc
# How it was run: as §1
# [29] = molecular target: Gal(b1-3)[Fuc(a1-4)]GlcNAc(b1-2)Man(a1-3)[Gal(b1-3)[Fuc(a1-4)]GlcNAc(b1-2)Man(a1-6)]Man(b1-4)GlcNAc(b1-4)GlcNAc
# How it was run: as §1
# [30] = molecular target: Gal(b1-3)[Fuc(a1-4)]GlcNAc(b1-2)Man(a1-3)[Gal(b1-3)[Fuc(a1-4)]GlcNAc(b1-2)Man(a1-6)]Man(b1-4)GlcNAc(b1-4)[Fuc(a1-6)]GlcNAc
# How it was run: as §1
# [31] = molecular target: Gal(b1-3)[Fuc(a1-4)]GlcNAc(b1-3)Gal(b1-3)[Fuc(a1-4)]GlcNAc
# How it was run: as §1
binder,measurement,setting,value
B1,glycan array binding signal (z-score),Gal(a1-3)Gal,-0.355
same,glycan array binding signal (z-score),Gal(a1-3)Gal(b1-3)GlcNAc,-0.342
same,glycan array binding signal (z-score),[1],-0.237
same,glycan array binding signal (z-score),[2],-0.335
same,glycan array binding signal (z-score),[3],-0.265
same,glycan array binding signal (z-score),Gal(a1-3)Gal(b1-4)Glc,-0.325
same,glycan array binding signal (z-score),Gal(a1-3)Gal(b1-4)GlcNAc,-0.346
same,glycan array binding signal (z-score),[4],-0.341
same,glycan array binding signal (z-score),[5],-0.297
same,glycan array binding signal (z-score),[6],-0.319
same,glycan array binding signal (z-score),Gal(a1-3)GalNAc,-0.347
same,glycan array binding signal (z-score),[7],-0.336
same,glycan array binding signal (z-score),[8],-0.307
same,glycan array binding signal (z-score),Gal(a1-4)Gal(b1-4)Glc,-0.345
same,glycan array binding signal (z-score),Gal(a1-4)Gal(b1-4)GlcNAc,-0.338
same,glycan array binding signal (z-score),[9],-0.346
same,glycan array binding signal (z-score),[10],-0.35
same,glycan array binding signal (z-score),Gal(a1-4)GlcNAc,-0.329
same,glycan array binding signal (z-score),Gal(a1-6)Glc,-0.347
same,glycan array binding signal (z-score),Gal(b1-2)Gal,-0.339
same,glycan array binding signal (z-score),Gal(b1-3)Gal,-0.348
same,glycan array binding signal (z-score),Gal(b1-3)Gal(b1-4)GlcNAc,-0.349
same,glycan array binding signal (z-score),[11],-0.355
same,glycan array binding signal (z-score),Gal(b1-3)GalNAc,-0.341
same,glycan array binding signal (z-score),[12],-0.341
same,glycan array binding signal (z-score),[13],-0.321
same,glycan array binding signal (z-score),[14],-0.343
same,glycan array binding signal (z-score),[15],-0.343
same,glycan array binding signal (z-score),[16],-0.272
same,glycan array binding signal (z-score),Gal(b1-3)GlcNAc,-0.34
same,glycan array binding signal (z-score),[17],-0.345
same,glycan array binding signal (z-score),[18],-0.294
same,glycan array binding signal (z-score),[19],-0.293
same,glycan array binding signal (z-score),[20],-0.26
same,glycan array binding signal (z-score),[21],-0.322
same,glycan array binding signal (z-score),[22],-0.304
same,glycan array binding signal (z-score),[23],-0.347
same,glycan array binding signal (z-score),[24],-0.321
same,glycan array binding signal (z-score),[25],-0.237
same,glycan array binding signal (z-score),[26],-0.337
same,glycan array binding signal (z-score),[27],-0.32
same,glycan array binding signal (z-score),[28],0.602
same,glycan array binding signal (z-score),[29],-0.346
same,glycan array binding signal (z-score),[30],-0.078
same,glycan array binding signal (z-score),[31],0.794
